Measured values: paper PMC4336329 (PLoS ONE, 2015)
Among all 310,000 compounds or so, about 14,000 (4.5%) showed an effect of 50% or more. Effects have a minus sign here. Some of the results follow.

The compounds below were run against human ether-à-go-go-related gene (hERG) potassium channel (human, UniProt Q12809) (assay: primary screen, population patch clamp on CHO cells stably expressing hERG).
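Note: peak tail current of the secondary pulse compared with the same well before compound.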

Chain of human ether-à-go-go-related gene (hERG) potassium channel (Q12809 whole entry, looked up): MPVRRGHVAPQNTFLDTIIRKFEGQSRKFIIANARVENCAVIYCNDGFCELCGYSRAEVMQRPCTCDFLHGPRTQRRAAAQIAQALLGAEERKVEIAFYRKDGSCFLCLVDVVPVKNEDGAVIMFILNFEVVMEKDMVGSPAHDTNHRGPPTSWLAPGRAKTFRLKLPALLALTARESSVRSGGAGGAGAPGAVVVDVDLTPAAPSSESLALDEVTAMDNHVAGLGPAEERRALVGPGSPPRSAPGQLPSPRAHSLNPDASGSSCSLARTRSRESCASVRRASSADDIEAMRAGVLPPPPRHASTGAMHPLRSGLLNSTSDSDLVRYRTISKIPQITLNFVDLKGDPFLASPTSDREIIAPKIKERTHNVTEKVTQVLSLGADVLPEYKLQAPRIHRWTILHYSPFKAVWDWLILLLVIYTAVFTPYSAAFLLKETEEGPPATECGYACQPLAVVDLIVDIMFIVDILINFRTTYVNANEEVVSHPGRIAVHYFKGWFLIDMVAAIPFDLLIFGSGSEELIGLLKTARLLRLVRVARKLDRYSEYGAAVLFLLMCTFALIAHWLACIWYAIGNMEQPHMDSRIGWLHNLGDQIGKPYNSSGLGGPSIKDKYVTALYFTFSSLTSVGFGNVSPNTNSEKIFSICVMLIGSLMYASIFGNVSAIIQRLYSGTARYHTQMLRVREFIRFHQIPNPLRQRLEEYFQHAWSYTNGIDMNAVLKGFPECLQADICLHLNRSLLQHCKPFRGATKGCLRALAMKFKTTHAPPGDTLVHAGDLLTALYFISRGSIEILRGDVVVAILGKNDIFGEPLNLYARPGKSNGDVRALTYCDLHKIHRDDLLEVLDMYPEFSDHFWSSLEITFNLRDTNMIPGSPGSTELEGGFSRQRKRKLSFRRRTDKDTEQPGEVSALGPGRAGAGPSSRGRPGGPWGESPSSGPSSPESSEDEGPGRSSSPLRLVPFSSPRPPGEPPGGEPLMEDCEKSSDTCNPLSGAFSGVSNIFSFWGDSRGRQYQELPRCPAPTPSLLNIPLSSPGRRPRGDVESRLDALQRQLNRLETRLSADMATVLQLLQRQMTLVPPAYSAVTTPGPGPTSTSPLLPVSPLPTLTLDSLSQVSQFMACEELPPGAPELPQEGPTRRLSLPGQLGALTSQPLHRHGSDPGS

Compared with CC(C)(C)NC(=O)c1ccc2nsnc2c1, CCCOc1ccc(N/C=C/C(=O)C(C)(C)C)cc1 is lower in “hERG current change (%, negative = inhibition) at 10uM” value: 5.74% for the first, 5.6% for the second.

Going from CC(C)(C)C(=O)/C(C#N)=C/c1ccc(O)cc1 to COc1ccc(C(=O)c2c(C)oc3ccc(O)cc23)c(OC)c1, the “hERG current change (%, negative = inhibition) at 10uM” value rises from 15.2% to 18.7%.

Compared with Cc1ccc(-c2csc3ncnc(Cl)c23)cc1, Cc1nc2ccccc2c(=O)n1-c1ccc(Cl)c(Cl)c1 is lower in “hERG current change (%, negative = inhibition) at 10uM” value: -3.12% for the first, -8.26% for the second.

First: CCn1c(=O)n(CC)c2cc(NS(=O)(=O)c3ccccc3)ccc21
Second: COc1cc(S(=O)(=O)Nc2ccc3cn[nH]c3c2)ccc1Cl
The “hERG current change (%, negative = inhibition) at 10uM” value of the first is lower: -68.7% for the first, -7.9% for the second.

Compared with Cc1nc(NCc2ccc(S(N)(=O)=O)cc2)c2c(C)c(C)sc2n1, CC1(C)CC(=O)c2sc(NS(=O)(=O)c3ccc([N+](=O)[O-])cc3)nc2C1 is higher in “hERG current change (%, negative = inhibition) at 10uM” value: 2.83% for the first, 14.7% for the second.

Compared with CCOc1ccc(NC(=O)CN(C)S(=O)(=O)c2cccs2)cc1, COc1ccc(CCN(C)CCC(=O)Nc2ccc(C)cc2)cc1OC.Cl is lower in “hERG current change (%, negative = inhibition) at 10uM” value: -0.397% for the first, -64.3% for the second.

First: COc1ccc(C2OC(=O)CC2C(=O)NCc2ccc(Cl)cc2)cc1OC (centres unmarked)
Second: CCOC(=O)CSc1c(-c2ccc(Cl)cc2)[nH]c2ccccc12
The “hERG current change (%, negative = inhibition) at 10uM” value of the first is lower: -15.4% for the first, -4.47% for the second.

Compared with O=C(NCC1CCCO1)C1CCN(C2CCN(C(=O)C3CCCCC3)CC2)CC1 (centres unmarked), CC(C)(C)OC(=O)N1CCC(C(=O)N2CCC[C@H]2C(=O)O)CC1 is higher in “hERG current change (%, negative = inhibition) at 10uM” value: 4.5% for the first, 23.7% for the second.

First: Fc1ccc(CN2CCCN(C(=S)Nc3ccc(F)cc3)CC2)cc1
Second: CCOc1ccccc1N1CCN(C(=S)Nc2ccc(S(N)(=O)=O)cc2)CC1
The “hERG current change (%, negative = inhibition) at 10uM” value of the first is lower: -15.1% for the first, 0.536% for the second.

Going from Cc1cccc(OCC(=O)Nc2cc(S(=O)(=O)N3CCOCC3)ccc2N2CCCC2)c1C to COc1ccc(S(=O)(=O)N2CCOCC2)cc1NC(=O)CSc1nnnn1C1CC1, the “hERG current change (%, negative = inhibition) at 10uM” value falls from 9.48% to -15.7%.

Compared with O=c1cc(CO)oc(C(Nc2ccccn2)c2ccsc2)c1O (centres unmarked), Cc1cccnc1CCNC(=O)CCc1nnc(CCc2ccccc2)o1 is lower in “hERG current change (%, negative = inhibition) at 10uM” value: 0.895% for the first, -2.46% for the second.

Going from Cc1cc(C)c2c(N)c(C(=O)NNC(=O)c3ccccc3)sc2n1 to COC(=O)C(CC(C)C)NC(=O)CSc1nc(-c2ccccc2)c(C#N)c(=O)[nH]1 (centres unmarked), the “hERG current change (%, negative = inhibition) at 10uM” value falls from -2.06% to -14.4%.

First: Fc1ccccc1Cn1cc(C(=S)N2CCOCC2)c2ccccc21
Second: COc1ccccc1-c1n[nH]c(=S)n1-c1ccccc1
The “hERG current change (%, negative = inhibition) at 10uM” value of the first is lower: -1.06% for the first, 13.2% for the second.

First: COc1cc2c(cc1OC)CN(C(=O)CN1C(=O)NC3(CCC(C)CC3)C1=O)CC2 (centres unmarked)
Second: Cc1cccc(N(Cc2ccccc2)C(=O)CN2C(=O)NC3(CCCCC3C)C2=O)c1 (centres unmarked)
The “hERG current change (%, negative = inhibition) at 10uM” value of the first is higher: -4.92% for the first, -36.8% for the second.

Going from COc1ccc(NC(=O)CSc2nc(N)cc(N)n2)cc1S(=O)(=O)N1CCCCC1 to COc1ccc(S(=O)(=O)N2CCCC(C(=O)NCCC(C)C)C2)cc1 (centres unmarked), the “hERG current change (%, negative = inhibition) at 10uM” value falls from 17.2% to 9.87%.

Compared with COc1cc(/C=N/n2c(-c3cc(C)[nH]n3)n[nH]c2=S)cc(OC)c1O, COc1cc(/C=N/n2c(=S)[nH]nc(C)c2=O)cc([N+](=O)[O-])c1O is lower in “hERG current change (%, negative = inhibition) at 10uM” value: 28.5% for the first, 20.4% for the second.

Going from Brc1ccc(-c2nc3ccccc3s2)s1 to COCC(=O)N(Cc1nc2ccccc2c(=O)[nH]1)Cc1cccs1, the “hERG current change (%, negative = inhibition) at 10uM” value rises from 0.64% to 11.4%.

Going from CCOC(=O)c1ccccc1NC(=O)Cn1cnc2c(cnn2C(C)(C)C)c1=O to CCCN(CC(=O)Nc1ccccc1OC)C(=O)CCNC(=O)c1ccccc1OC, the “hERG current change (%, negative = inhibition) at 10uM” value falls from 5.04% to -2.16%.

First: CCOc1ccc2nc(N3CCC(C(=O)NCCCN4CCOCC4)CC3)sc2c1
Second: O=C(CSc1nnnn1C1CCCCC1)Nc1ccccc1N1CCOCC1
The “hERG current change (%, negative = inhibition) at 10uM” value of the first is lower: -17.7% for the first, -6.54% for the second.

First: CC(C)CCNC(=O)CO/N=C/c1ccccc1OC(F)F
Second: CCCNC(=O)Cn1cccc1C(=O)c1ccccc1
The “hERG current change (%, negative = inhibition) at 10uM” value of the first is lower: -0.658% for the first, 14.7% for the second.

Going from O=[N+]([O-])c1cccc(-c2c(-c3ccccc3)ncc3ccc(F)cc23)c1 to O=C(Nc1cccc2ccccc12)c1ccc([N+](=O)[O-])o1, the “hERG current change (%, negative = inhibition) at 10uM” value falls from 1.49% to -3.17%.

Compared with C=CCn1c(=O)c2ccc(C(=O)NCc3ccccc3)cc2n(Cc2cccc(Cl)c2)c1=O, COc1cccc(-n2cc(C(=O)NCCCOC(C)C)c3ccccc3c2=O)c1 is lower in “hERG current change (%, negative = inhibition) at 10uM” value: 14% for the first, -6.95% for the second.

First: CC(C)(C)C(=O)N1CCN(CCN2C(=O)c3cccc4cccc(c34)C2=O)CC1
Second: Cc1c(Cl)cccc1NC(=O)CN1CCN(CCN=CC2=C(O)CC(c3ccccc3)CC2=O)CC1 (centres unmarked)
The “hERG current change (%, negative = inhibition) at 10uM” value of the first is higher: 3.09% for the first, -19.9% for the second.

Compared with CC(C)C(=O)Nc1ccc(C(=O)NC2CCSC2=O)cc1 (centres unmarked), CC(C)c1ccc(NC(=O)COC(=O)CSc2nnc(N)s2)cc1 is higher in “hERG current change (%, negative = inhibition) at 10uM” value: 7.51% for the first, 13% for the second.

Going from CC(C)c1ccc(C(C(=O)NC2CCCCC2)N(C(=O)c2csnn2)C2CC2)cc1 (centres unmarked) to O=C(CCC(=O)NC1CCCCC1)N/N=C/c1ccncc1, the “hERG current change (%, negative = inhibition) at 10uM” value rises from 0.0433% to 38.9%.

Going from O=C(Nc1cccnc1)/C(N=Nc1c(Cl)cccc1Cl)=C(\O)c1ccccc1 to CC(NC(=O)COC(=O)COc1ccc(C(=O)c2ccccc2)cc1)c1ccccc1 (centres unmarked), the “hERG current change (%, negative = inhibition) at 10uM” value falls from 18.8% to -1.27%.

Compared with CCOc1cc(/C=N/NC(=O)N/N=C/c2ccc(O)c(OCC)c2)ccc1O, COc1ccc(CC(=O)N/N=C/c2cc([N+](=O)[O-])cc(Br)c2O)cc1 is higher in “hERG current change (%, negative = inhibition) at 10uM” value: -10.1% for the first, 6.88% for the second.

Compared with O=C(CC1C(=O)NCCN1C/C=C/c1ccccc1)NCCc1ccncc1 (centres unmarked), O=C(CC1C(=O)NCCN1Cc1ccc(Cl)c(F)c1)NCCc1cccnc1 (centres unmarked) is higher in “hERG current change (%, negative = inhibition) at 10uM” value: -18.1% for the first, -12.7% for the second.

Compared with O=P(OC1CCCCC1)(OC1CCCCC1)C(O)c1c(Cl)cccc1Cl (centres unmarked), NNc1nc2sc3c(c2c(=O)n1C1CCCCC1)CCN(Cc1ccccc1)C3 is lower in “hERG current change (%, negative = inhibition) at 10uM” value: -1.25% for the first, -3.78% for the second.

Compared with COc1ccc(CCNC(=O)CN2C(=O)NC(C)(c3ccc([N+](=O)[O-])cc3)C2=O)cc1 (centres unmarked), CCC(CC)C(=O)NCCc1ccc(OC)cc1 is higher in “hERG current change (%, negative = inhibition) at 10uM” value: -26.5% for the first, 17.8% for the second.

Compared with Cc1n[nH]c(C)c1C(=O)CC1(O)C(=O)N(Cc2ccccc2)c2ccc(Br)cc21 (centres unmarked), CC1(C)c2cc(Cl)ccc2-n2c1cc(O)c(-c1ccccc1)c2=O is higher in “hERG current change (%, negative = inhibition) at 10uM” value: -1.66% for the first, 9.35% for the second.

Going from O=C(O)CSc1ccccc1C(=O)O to Cc1nn(-c2ccccc2)c(C)c1/C=C/C(=O)OC(C)C(N)=O (centres unmarked), the “hERG current change (%, negative = inhibition) at 10uM” value rises from 0.431% to 6%.

Going from CC(=O)c1cccc(NC(=O)C(C)OC(=O)c2cc(=O)[nH]c3ccccc23)c1 (centres unmarked) to COc1ccc(/C=C(\NC(=O)c2ccc(OC)cc2)C(=O)Nc2ccccc2C(=O)O)cc1, the “hERG current change (%, negative = inhibition) at 10uM” value falls from -0.987% to -17.9%.

Going from Cc1c(-c2n[nH]c(=S)n2-c2ccc(C(F)(F)F)cc2)nnn1-c1ccccc1 to Cc1ccc(N2CCN(S(=O)(=O)c3ccc4c(c3)oc(=O)n4C)CC2C)cc1 (centres unmarked), the “hERG current change (%, negative = inhibition) at 10uM” value falls from 20% to 9.52%.

First: CCCN(CC(=O)Nc1ccccc1C)C(=O)CCN1C(=O)c2cccc([N+](=O)[O-])c2C1=O
Second: CCN(CC)Cc1c(O)ccc2c(=O)c(-c3ccccc3OC)coc12
The “hERG current change (%, negative = inhibition) at 10uM” value of the first is lower: -18.6% for the first, 15.7% for the second.

First: Cc1c(C(=O)N/N=C/c2cccs2)nnn1-c1nonc1N
Second: NC(=S)N/N=C/c1cn(CCC(=O)O)nc1-c1cccc(Br)c1
The “hERG current change (%, negative = inhibition) at 10uM” value of the first is lower: -18.8% for the first, 17% for the second.

Compared with COc1cccc(Oc2ccc(N)cn2)c1, COc1cccc(C(=O)C2CCCN(Cc3cnn(C(C)C)c3)C2)c1 (centres unmarked) is lower in “hERG current change (%, negative = inhibition) at 10uM” value: 2.71% for the first, -43.6% for the second.

Going from COCCN(C(=O)C1CCCC1)c1c(N)n(Cc2ccccc2)c(=O)[nH]c1=O to CCCCn1c(N)c(N(CCC(C)C)C(=O)c2c(C)noc2C)c(=O)[nH]c1=O, the “hERG current change (%, negative = inhibition) at 10uM” value falls from 29.4% to 8.73%.

First: O=C(Nc1ncc([N+](=O)[O-])s1)C1CC(=O)N(c2ccc(F)cc2)C1 (centres unmarked)
Second: Cc1cccc(-n2nc3c(c2NC(=O)C2CC2)CS(=O)(=O)C3)c1C
The “hERG current change (%, negative = inhibition) at 10uM” value of the first is higher: 5.96% for the first, -15.4% for the second.

Going from CCOC(=O)C(C)c1c(C)[nH]c(=S)[nH]c1=O (centres unmarked) to CCOC(=O)CN1C(=O)SC(Nc2ccc(C)cc2)C1=O (centres unmarked), the “hERG current change (%, negative = inhibition) at 10uM” value rises from 9.04% to 27.1%.

Going from COc1ccc(C)cc1-n1[nH]nnc1=S to Cc1occc(=O)c1OCc1ccc(Cl)cc1Cl, the “hERG current change (%, negative = inhibition) at 10uM” value falls from 16.3% to -9.81%.

Going from CC(=O)NC1=NC(=O)CS1 to O=C(NC1=NCCS1)c1ccc(Cl)s1, the “hERG current change (%, negative = inhibition) at 10uM” value rises from 0.147% to 13.7%.

Going from COCCn1c(C)cc(C(=O)CSc2nc(C)nc3sc4c(c23)CCC4)c1C to Cc1oc(-c2ccccc2F)nc1CS(=O)CC(=O)NC1CC1 (centres unmarked), the “hERG current change (%, negative = inhibition) at 10uM” value falls from 11.6% to 9.38%.

First: O=C(CCc1nnc(CCCc2ccccc2)o1)NC(C1CC1)C1CC1
Second: O=[N+]([O-])CC(c1ccccc1)P(=O)(c1ccccc1)c1ccccc1 (centres unmarked)
The “hERG current change (%, negative = inhibition) at 10uM” value of the first is lower: 2.96% for the first, 25.5% for the second.

Cc1ccc(NS(=O)(=O)c2ccc(NC(=O)CSc3ccc(Cl)cc3)cc2)c(C)c1 was tested, and the “hERG current change (%, negative = inhibition) at 10uM” value was 9.71%.
